From PMC9940316 (2023)

Molecular target: human plasma IgG1 (human, UniProt P01857 = IgG part)
Experiment: SPR

- Kd: 1900 nM
B1: FcγRIIIA wild type protein (receptor)
chain: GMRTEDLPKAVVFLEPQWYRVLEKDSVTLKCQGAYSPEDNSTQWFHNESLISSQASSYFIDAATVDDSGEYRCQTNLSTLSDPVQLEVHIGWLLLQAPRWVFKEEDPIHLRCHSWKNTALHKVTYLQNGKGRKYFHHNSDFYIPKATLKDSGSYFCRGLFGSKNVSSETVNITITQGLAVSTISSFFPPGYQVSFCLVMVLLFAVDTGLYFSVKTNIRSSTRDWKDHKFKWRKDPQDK
